From publication PMC12136788
The other results are listed elsewhere or left out.

B1: chr7:151048522:151048523:+_ENSG00000013374_ENST00000566856|hu_mus|hu_hu_hu_mus_True|1_8 (ssRNA)
RNA: GGGAGUUCUACAGUCCGACGAUCCUGUUUCUUAUUUAUUACGAUCUUGAUGUAAUUUUCUUGAAAUCCGAAAGUUUCAGCUAUUUGACACCUCAGGUCUCUACCAGUGACAUGCAAGCGGGUCUCCAACAAGUUUUUCCUAUCCAACAGAGGAUUGAGCAUCA
B2: chr14:102368134:102368135:+_ENSG00000078304_ENST00000445439|hu_hu|hu_hu_hu_mus_True|68_68 (ssRNA)
RNA: GGGAGUUCUACAGUCCGACGAUCAAGAGGCUCCAUGAUCUUCACAAACUCUGAUGGUUCAAUUACAUCUAAAAUCUCUUCUAAUUCAUUUAAGAACAUUACUUCUUUUGGACUGUGAGUCUUUGGCCAGUAUUUGAGAAGUGCCAACAGAGGAUUGAGCAUCA
B3: chr7:43916975:43916976:-_ENSG00000106608_ENST00000402306|hu_hu|FALSE|FALSE (ssRNA)
RNA: GGGAGUUCUACAGUCCGACGAUCCCCAAACAUGGUGUUGAGGAGUGUGGACUUGCCCGUGCCUGGCACCCCGACGGUUGACAGAACCACCAGCCUUGACCGUCUCUCCAGUCGGACGUGCAGCUCCUUCAGGAGCCCUGUGACCAACAGAGGAUUGAGCAUCA
B4: chr5:31825596:31825597:-_ENSMUSG00000053134_ENSMUST00000065388|mus_mus|FALSE|FALSE (ssRNA)
RNA: GGGAGUUCUACAGUCCGACGAUCUAGGAAGUCUAGGCAGUUCCCACAUAAGAAGCAAGCUAAGAUCACUUUAAAAAGGUGCUAGCAAAACUCUAGGACAGACAAUACUCUCCCGCCCUGCCCCAGGAGUGGUAUACGCGGCUGCAACAGAGGAUUGAGCAUCA
B5: chr2:78760142:78760143:+_ENSMUSG00000027011_ENSMUST00000028398|mus_hu|FALSE|FALSE (ssRNA)
RNA: GGGAGUUCUACAGUCCGACGAUCGGUCCACUGUCUGGCUAUCCUGUCGUGUUCUGCUCUGUUGGUCAAAUACUGAGUGGCUAUGCUUCCAACCAGAGGAUCCGCAGGGUUGCAGUCUGUCAAAAGGGAACAAAUAGACAGCAACAACAGAGGAUUGAGCAUCA
B6: 19544922_19545042_2767_3pUTR_ENSMUSG00000030411_ENSMUST00000032571|mouse|control|control (ssRNA)
RNA: GGGAGUUCUACAGUCCGACGAUCCUUCAUCCCUAUGAUGCCACAGGAAGUGACCUCGAGAUUCCACAGGAAGUACAUGCCUCUGCCAUCUACAGAAGCGACCUUUGAGGCCUUUUGUUGGGACCUCACAGGAAAUGAUUUUCUCAACAGAGGAUUGAGCAUCA
B7: chr12:57883053:57883054:+_ENSG00000166986_ENST00000262027|hu_hu|FALSE|FALSE (ssRNA)
RNA: GGGAGUUCUACAGUCCGACGAUCAGUGAGGUCAUCUUGCUCCCAGCCAGAUAACAAAAAAAAAUAUCGGCAGAUUGCACUAGUGGAGAAGAGGUAGUUGCCGCUAUCCAGCUGCAAGACAGGGACCUUAGGCCGGGUCAGGAACAACAGAGGAUUGAGCAUCA
B8: 38430061_38430181_797_CDS_ENSMUSG00000037458_ENSMUST00000065308|mouse|control|control (ssRNA)
RNA: GGGAGUUCUACAGUCCGACGAUCACAAGCAAACCCAGUUCCAAGAGCUGCCAAGAUCUCAAGCACGGCUGGAGUGGAGUUGCACUUCACCGUGUAAAACGGCUUUAUCUGAGCCACCACGGUCUGCCACUGACUGUGCUUCUUCAACAGAGGAUUGAGCAUCA
B9: chr7:141438946:141438947:+_ENSG00000106028_ENST00000265304|hu_mus|hu_hu_hu_mus_True|8_58 (ssRNA)
RNA: GGGAGUUCUACAGUCCGACGAUCGACGAAAUACCUGUAACACAGGUCUUCGAAACAUGGCUUCUGUUUUUCUUACAGUCUAAUCUUUAGGCUUUUCCUAAAGGAAAGAAAGAAAAGAGAAAAAUGAGCAGGGGAUCAACUACACAACAGAGGAUUGAGCAUCA
B10: chr1:109605286:109605287:-_ENSG00000197780_ENST00000461096|hu_mus|hu_hu_hu_mus_True|8_38 (ssRNA)
RNA: GGGAGUUCUACAGUCCGACGAUCAAGUUUCAGAGUAACAUUCAGUAACCUCUUUAAAUGCAAUUAUCCUUAUUAUAAGCUAAGCAGAAUAAUAAUUUAAUACAUAGAGUGAACUACACACAAAGCCGUGUAUUCAGAAAUGGUCAACAGAGGAUUGAGCAUCA
B11: chr5:162943533:162943534:+_ENSG00000038274_ENST00000321757|hu_hu|FALSE|FALSE (ssRNA)
RNA: GGGAGUUCUACAGUCCGACGAUCAGGAAUCCUCAAAACAGCAGCUCCUAGAUUGUUCUCCAGGACAGCCUUUUCUCCAUCUAAUUUUGUUUUGCCAUACAAAUUUAGGGGAGCUGGUAUGUCUUCCUCUCUGUAAGGUGGAUUCAACAGAGGAUUGAGCAUCA
B12: 32640894_32641014_2729_CDS_ENSG00000115760_ENST00000421745|human|control|control (ssRNA)
RNA: GGGAGUUCUACAGUCCGACGAUCUGAGGUUAACUGCAUGUCCUCAAUAGGUUCCUCACAGUCAUCCUCUCGAUUAUCCAAUAUAUCGGGUGGAAGCAAAAUGAGCGAGGUAAUUGUGUCCUGGGGAUCUUUGAUAUGUUGUAUCAACAGAGGAUUGAGCAUCA
B13: chr4:99997923:99997924:-_ENSG00000197894_ENST00000296412|hu_mus|FALSE|FALSE (ssRNA)
RNA: GGGAGUUCUACAGUCCGACGAUCAGCCCCGUAGCCAGUUGAAAUACCACAGCCGAGAAGGCAGACUUUAUCCAAAGGGGCCGAAGGAUCGAUUUUAGCAACAGAGAUGUCAGCCACAACUGUGUACUCGGAAAAUGUGCUAGUCAACAGAGGAUUGAGCAUCA
B14: chr9:32553822:32553823:-_ENSG00000165264_ENST00000350021|hu_mus|FALSE|FALSE (ssRNA)
RNA: GGGAGUUCUACAGUCCGACGAUCUCUGAGAAUAAGCUUUAUUAAUUACUUUUCCAGGAAACAGAUUCAGUAAAUACAGCACUUUAGGAACAUACUUGUGCUGUUACACAAGUCUGUUAAGUUUUUAAGGACUCUUCAAUGAUGCAACAGAGGAUUGAGCAUCA
B15: chr2:119552488:119552489:+_ENSMUSG00000027304_ENSMUST00000028767|mus_hu|motif|central (ssRNA)
RNA: GGGAGUUCUACAGUCCGACGAUCGAACAUCGCUUCUUUCCACUUCAUAAACUCACUUUCGGUGAAUUCUUGGUUUGAGACAAACUCGGAACGGAACACGCGUUGGUCAUUGCCAUGCCGUAGUUGCAGCCCUUUGUUUGUUCUCAACAGAGGAUUGAGCAUCA
B16: chr8:3623242:3623243:+_ENSMUSG00000087687_ENSMUST00000156380|mus_hu|FALSE|FALSE (ssRNA)
RNA: GGGAGUUCUACAGUCCGACGAUCCUGCUGGGCGUCGCGAAGGAGCUUCUCCUCCCGCCGCUUCCGUAACCUCUCUUUGAAUUCCUCUAUCUCUUGAAGCUUCUCAGGUGGCCACAGCUCCCUCUUGCGCUGUAUGACAUCGUCCAACAGAGGAUUGAGCAUCA
B17: chr2:61275951:61275952:+_ENSG00000162928_ENST00000295030|hu_mus|motif|central (ssRNA)
RNA: GGGAGUUCUACAGUCCGACGAUCGCUUUCAUUCAACUGCAAAUUAAUUUCUCUGUAAGAAAUGAUUUUUUAAAAUACUCGGAAAUAUUGUUCACCUGCCCACAAACAUGAAACACAUCAAAGAUCUUGUUUGUCUCCAUUUUUCAACAGAGGAUUGAGCAUCA
B18: chrX:147082729:147082730:-_ENSMUSG00000025272_ENSMUST00000087258|mus_hu|FALSE|FALSE (ssRNA)
RNA: GGGAGUUCUACAGUCCGACGAUCACCGAAGCAGAUACUGGUACUGAGUGUACCACCAAAGCUACCACUGGAGCUGGGAGAGCCACCAAAACAGACACUGGUGCUGAGUAUGCCUCCAAAGCCAGUGCUGGUGCUAAGCGCACUCAACAGAGGAUUGAGCAUCA
B19: chr1:138071448:138071449:+_ENSMUSG00000041642_ENSMUST00000075164|mus_mus|FALSE|FALSE (ssRNA)
RNA: GGGAGUUCUACAGUCCGACGAUCGGUAUGCCGGCAUGGGCAGGUCCGGGGCAAUUGUCAGAGCUGCAAAGGAUAGAGAAGGCUAUCCCCUCAUCUGCAGAGCAAGCAGAGGGAAGGCCCCCACCCCCACCCCACCCCACCCCACAACAGAGGAUUGAGCAUCA
B20: chr5:23013406:23013407:-_ENSMUSG00000062604_ENSMUST00000088392|mus_hu|motif|central (ssRNA)
RNA: GGGAGUUCUACAGUCCGACGAUCGUCCAAUGUACUGGGAACAUUUGCUAGCUCAGAAUGCAAUAUUGGUAGAAUUUGCGGAGAAUUCAACCAAGGAUGCCGAAGGCAUUCGCCAGCUGAGGCUCGUUUUUCUGGAACCAUUUCCAACAGAGGAUUGAGCAUCA
B21: chr19:16212804:16212805:+_ENSG00000167460_ENST00000300933|hu_mus|hu_hu_hu_mus_False|18_88 (ssRNA)
RNA: GGGAGUUCUACAGUCCGACGAUCAACAAUUCUGGAGUGAAGGAAAGCAUCAAGGAUGAACAGCAUUAAAGCUCAGUCAGAAGGCACAUGGGCAACAAUGAUCACCCCAGCAUUCUCCUACGUUGACCUUAAAGACAAUCUGUUCAACAGAGGAUUGAGCAUCA
B22: chr11:29608261:29608262:+_ENSMUSG00000020458_ENSMUST00000102843|mus_mus|FALSE|FALSE (ssRNA)
RNA: GGGAGUUCUACAGUCCGACGAUCAGAAGAAAGUAAGUCAUCAUUGGAAUAAAUUGCAGUAUUAAACUCUUCCAUUUGCAAAGAAAUUGUCUCCUUUUUGGUCAAUGUUGGAAUUUCAUUAGAUGCAGCAUCUUUUGUAAUAUGCAACAGAGGAUUGAGCAUCA

Target: T1, UNK ZnF1-3 (human, UniProt Q9C0B0 31-174)
T1 sequence: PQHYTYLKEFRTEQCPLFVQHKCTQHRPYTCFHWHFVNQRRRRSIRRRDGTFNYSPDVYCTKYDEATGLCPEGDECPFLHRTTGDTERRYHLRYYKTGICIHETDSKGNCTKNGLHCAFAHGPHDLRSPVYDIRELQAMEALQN
Assay: nsRBNS (natural sequence RNA bind-n-seq); RBNS binding buffer (assumed for nsRBNS): 25 mM Tris pH 7.5, 150 mM KCl, 3 mM MgCl2, 0.01% Triton X-100, 500 ug/ml BSA, 20 U/ml SUPERase-In, 4 C; UNK is unkempt and MSI1 is Musashi-1; names of the RNAs are library labels; protein concentration not given here; high values mean tight binding

Row | Binder | binding signal
1 | B1 | 0.695 enrichment R
2 | B2 | 0.834 enrichment R
3 | B3 | 1.28 enrichment R
4 | B4 | 1.48 enrichment R
5 | B5 | 1.53 enrichment R
6 | B6 | 0.488 enrichment R
7 | B7 | 1.77 enrichment R
8 | B8 | 0.876 enrichment R
9 | B9 | 0.57 enrichment R
10 | B10 | 0.647 enrichment R
11 | B11 | 0.852 enrichment R
12 | B12 | 0.573 enrichment R
13 | B13 | 2.35 enrichment R
14 | B14 | 0.696 enrichment R
15 | B15 | 0.412 enrichment R
16 | B16 | 0.517 enrichment R
17 | B17 | 1.3 enrichment R
18 | B18 | 1.01 enrichment R
19 | B19 | 1.41 enrichment R
20 | B20 | 1.08 enrichment R
21 | B21 | 1.37 enrichment R
22 | B22 | 0.789 enrichment R
